In the data set the test system is ATP. Put plainly: switch fluorescence ratio, 500 uM ATP over buffer (Cy3 cluster intensity, sum of 5 cycles each) (fold (ratio)); higher = stronger signal-on switching upon ATP binding; sequences stand for … in TCGTCGGCAGCGTCAGATGTGTATAAGAGACAGTTTTTTTTTTTTTTTTTTTTTTTTT…TC. As to conditions: aptamer strand: ATP DNA aptamer (quencher-CACCTGGGGGAGTATTGCGGAGGAAGG + anchor), 100 nM annealed; ATP concentration: 500 uM; one replicate. In outline:
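Between each of five buffer/ATP cycles, the flow-cell was stripped with NaOH and re-annealed. Each cycle imaged Cy3-labelled switching-strand clusters, annealed to 100 nM quencher-labelled ATP aptamer on a modified Illumina MiSeq flow-cell, first in selection buffer and then after 15 min with 500 uM ATP at 22 °C. The fluorescence ratio is summed target-cycle over summed buffer-cycle Cy3 intensity per cluster, averaged per switch-domain sequence, with clusters outside 100-1000 RFU excluded.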

Sequences with one replicate were seen in a single cluster, so their values are uncertain.
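Also: ATP exposure 15 min at 22 °C before imaging.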

On to GACTCAACTG, for which the switch fluorescence ratio came out at 0.93.
On to TTAAACCTCG, for which the switch fluorescence ratio is 1.12.
The same measure for GAAGTGCTTA: 1.05.
Take GTGAGCGATA: the switch fluorescence ratio was determined as 1.2.
The same measure for TTTCATAGAT: 0.993; for TCTGAAGCCG: 1.05; for CATTGGTCCG: 0.992.
As to GGCTCGATGC, the switch fluorescence ratio amounted to 0.971.
Consider CCATACGCTT, for which the switch fluorescence ratio worked out at 3.53.
Consider CCTTTGGTGT, for which the switch fluorescence ratio was determined as 1.16.
For ATAAGGGA the value was 1.02; for CGCGCAGGA, 1.
For the sequence ACTGCTTAGC, the switch fluorescence ratio was 1.03.
For ATACAGTGCG the value was 1.02; for TGGGTCCAG, 0.965.
Consider AATACGTACT, for which the switch fluorescence ratio was 1.64.
The same measure for GCTGCGATCG: 1.07; for CCCAAATGCC: 1.06.
In the case of ATCAAAGGGT, the switch fluorescence ratio was 1.02.
For CGATGTTAGC the value was 1.06; for AACAAGTTTG, 0.995.
As to GACTGAAAGG, the switch fluorescence ratio is 0.939.
The same measure for CTTGCATACC: 1.74; for CCAGGGCATC: 1.11.
With ACTGTATTGC, the switch fluorescence ratio worked out at 1.2.
Regarding GTCGTGTCAG, the switch fluorescence ratio was determined as 1.01.
On to TACGGCAACT, for which the switch fluorescence ratio stood at 1.27.
Regarding TCTTCTTTTT, the switch fluorescence ratio was determined as 1.03.
The same measure for ACTCGATTTG: 0.999.
For GGCATGCCTG the value was 0.992.
CCTTGTCTTA: the switch fluorescence ratio was found to be 1.01.
For the sequence ATGGAATCAT, the switch fluorescence ratio was determined as 0.947.
As to AATCGGGTGG, the switch fluorescence ratio came out at 1.07.
With TGGATTTGTT, the switch fluorescence ratio is 0.946.
The same measure for CCACCGAGGA: 1.22; for ATGAGAGTGT: 0.956; for ATCGGAAGAT: 0.971.
The same measure for TGATTCGGAC: 1.02; for TGTGATGCT: 1.
For TGTGGAGGTG the value was 1.03; for ATCAAAAGAC, 1.28; for GTTCTTCGGG, 0.972.
On to AACTTCTAGC, for which the switch fluorescence ratio is 1.02.
For TAGACAACAT the value was 1.03.
For CTCAGCACGA the value was 2.1; for TGCGCTCTCT, 0.969; for TTATTTCTCC, 1.01.
The same measure for GGATGCGGT: 1.02; for AAAATCGGTC: 0.938; for ACGCGACTAA: 1.11.
As to TGTGAGATG, the switch fluorescence ratio worked out at 1.05.
For the sequence AGCCAATAAG, the switch fluorescence ratio is 1.08.
For CCCATTATCT the value was 1.01; for GAGTTAGATT, 1.
For TTAGTACGTA the value was 1.03; for CGCCCTCACC, 1.39.
The same measure for CTACGACCTT: 1.23; for TTTTCGACGC: 1.8.
For TCAGATGTTC, the switch fluorescence ratio worked out at 1.02.
As to CCATGGCTAA, the switch fluorescence ratio is 1.02.
For TTTGGACTTT, the switch fluorescence ratio was found to be 1.01.
The same measure for TCAGCATCC: 1.97; for AGCGTCTCGA: 1.01; for AAGGACACGC: 1.02.
For TGCGGCACAA the value was 1.07.
The same measure for AACCCTTATG: 1.04; for GACGAGTATG: 1.05.
With TAGGCCGGGG, the switch fluorescence ratio came out at 0.971.
The same measure for TCACGCCTAT: 1.03; for GCTGCCCCCC: 1.57; for GTGTCGCGGT: 0.997.
For TGCTTGAAGC the value was 0.99.
For GTTGGGAGAG the value was 0.974; for CTAGGCAGTG, 1.03; for AGATATAGGC, 0.995.
For the sequence ATCGTTATAG, the switch fluorescence ratio came to 0.983.
For CAAGGTGTCT the value was 0.991.
The same measure for CATGGAGTGG: 0.958; for ATAATCCCTG: 1.06; for TTGAGGCAAA: 1.22.
The same measure for GACTAGGAGA: 0.963; for CGATTGGCCT: 1.04; for CAGCTCTCGA: 1.01.
Regarding GGGGACGTAA, the switch fluorescence ratio is 1.12.
For CTGGTTGAGA, the switch fluorescence ratio came to 1.
The same measure for GGAGTACGAA: 0.993.
The same measure for CCCTGACGCC: 3.45; for TGTACGCTCA: 1.04; for ATCGGCTTGA: 1.01.
For CCGCTGGCTT the value was 1.51; for TTGTGTTGAG, 0.996.
As to TGGTGTGTGA, the switch fluorescence ratio came to 1.05.
On to CTGCACCGCG, for which the switch fluorescence ratio stood at 0.995.
With CTAAGCTCGC, the switch fluorescence ratio is 1.05.
As for GAGGGCTGTA, the switch fluorescence ratio stood at 1.07.
The same measure for AGTTGGATCG: 1.01; for CAAACCTTGC: 2.97; for GCGTCTGACT: 0.937.
The same measure for TTTTAGGCT: 0.986; for TTAGACTATT: 0.962; for TTTAGGGG: 0.978.
For TTTCTATACT the value was 1.11.
Regarding GGAGAAGTAG, the switch fluorescence ratio amounted to 1.07.
The same measure for AGGCAAAATT: 1.73.
For GGGTATGCTT the value was 0.958; for CAGTTGGTGA, 1.03; for CGGGCGGACG, 0.855.
For TCCCAAACGT the value was 1.04; for GTAGGGTTCA, 1.
Turning to GCTAGTTTGG, the switch fluorescence ratio turned out to be 1.03.
The same measure for GGGTCCCG: 0.962; for AATAGGGAAG: 1.03; for ATTAGGCTGG: 0.987.
As for GAGAATAGGA, the switch fluorescence ratio was found to be 1.02.
On to TGTGGCGTAC, for which the switch fluorescence ratio came to 1.04.
AAAGCATCAG: the switch fluorescence ratio was 1.01.
The same measure for AGGGTTTTTA: 0.983; for CCGCCGCAGC: 1.65.
As to GCTAGACGAT, the switch fluorescence ratio amounted to 1.06.
As for CCAAGACGTT, the switch fluorescence ratio is 0.986.

The values are drawn from the supplement of paper PMC10126150.
